# Out of some 420,000 compounds screened, about 64,000 (15%) were called active. Inconclusive results, whose numbers are uncertain, are shown with a selection of clear calls. The call rests on the fitted dose curve; in most records, active means well fitted inhibition curve with a large enough effect; inconclusive means small, poorly fitted or top-dose-only effect; inactive means flat fitted curve, though single readings scatter. Potencies of inconclusive entries are left out as doubtful fits.
# Assay: qHTS for Inhibitors of human tyrosyl-DNA phosphodiesterase 1 (TDP1): qHTS in cells in absence of CPT; further: nearly all actives have a fitted effect of over 55% in size
# Conditions: DT40 Tdp1-/- hTDP1 cells, no CPT, ATP luminescence, 48 h; activity change, negative = growth inhibition: at 46.2 µM (top of the series)
# Method in brief: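 Compound effects on proliferation are scored in DT40 Tdp1-/-;hTDP1 cells in the absence of CPT. ATP levels (CellTiter-Glo luminescence) are recorded after a ≥48 hr, 37 °C incubation.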
# On the % scale 0 is the no-effect control and ±100 the full control effect; potency means the concentration at half of the fitted maximal effect; tags describe the fitted curve by direction and shape.
SMILES,Potency,"activity change, negative = growth inhibition"
O=C(CSc1ccc(-c2ccccn2)nn1)N1CCCC1,"inconclusive [inhibitor, partial curve, poor fit]",–
O=[N+]([O-])c1cc(S(=O)(=O)N2CCCCCC2)ccc1Cl,active: 8.2 µM,–
CCN1c2ccccc2-c2nc3ccccc3n2C1c1cccs1 (stereo not given),active: 13 µM,–
COc1cccc(CC(=O)OCC(=O)NC2CCCC2)c1,–,inconclusive: -31.3% [inhibitor]
NC(=O)c1cc2cc(Cc3ccccc3Cl)ccc2oc1=O,inactive,–
CC(C)OCCCNC1=C(Cl)C(=O)c2ccccc2C1=O,"inconclusive [inhibitor, single point]",–
COc1ccc(NC(=O)C2(C)CCN2Cc2cccc(OC)c2OC)cc1OC (stereo not given),active: 16.4 µM,–
Cc1ccc(C(=O)c2cn(CC(=O)Nc3ccc(C)cc3Cl)c3nc(C)ccc3c2=O)cc1,active: 23.1 µM,–
Cc1cccc(NC(=O)N2CC(=O)Nc3sc4c(c3C2c2ccccc2)CCCC4)c1C (stereo not given),"inconclusive [inhibitor, single point]",–
Cc1cc(C)cc(NC(=O)Cn2nnc(C(=O)NCc3ccc(F)cc3)c2N)c1,"inconclusive [inhibitor, single point]",–
Cc1ccccc1Cn1nc(C)c(NC(=O)/C=C/c2cnn(C)c2)c1C,"inconclusive [inhibitor, full curve, poor fit]",–
CN(C)CCNC(=O)c1cccc2nc3cccc(F)c3nc12,active: 0.259 µM,–
Cc1nn(-c2ccccc2)c(C)c1NC(=O)c1ccc(S(=O)(=O)N2CCCC2)cc1,–,inconclusive: -30.9% [inhibitor]
Cc1ccc(S(=O)(=O)N2C[C@@H]3[C@H]4CC[C@H](C4)[C@@H]3[C@@H](C)[C@@H]2C2CCCCC2=O)cc1 (stereo not given in full),"inconclusive [inhibitor, single point]",–
Cc1ccc2oc(-c3ccc(NC(=O)COc4ccccc4)cc3O)nc2c1,"inconclusive [inhibitor, single point]",–
O=C(NCc1ccc(Cl)cc1)C(=O)Nc1nccs1,inactive,–
Cc1c(Br)ccc(NC(=O)COc2ccccc2C(N)=O)c1C,"inconclusive [inhibitor, partial curve]",–
CC(C)(C)Cc1c(C2CCCCC2)nc2ccc(Br)cn12,inactive,–
O=C(Nc1cccc(C(F)(F)F)c1)Nc1ccon1,–,inconclusive: -33.7% [inhibitor]
Cc1ccc(Cl)cc1N1CCN(C(=O)c2ccc3c(c2)N(Cc2ccc(F)cc2)CCS3)CC1,"inconclusive [inhibitor, single point]",–
CCOc1cc(CNC(=O)c2ccc3c(c2)NC(=O)C2CCCCN32)cc(OCC)c1OCC (stereo not given),"inconclusive [inhibitor, single point]",–
CC(C)COC(=O)Nc1ccccc1C(=O)N1CCOCC1,inactive,–
COCCCNC(=S)N/N=C/c1ccc(OC)c(Br)c1,"inconclusive [inhibitor, single point]",–
COc1ccc(CCn2c(NN=C(C)C)nc3c2c(=O)[nH]c(=O)n3C)cc1,"inconclusive [inhibitor, full curve, poor fit]",–

SMILES,Potency,"activity change, negative = growth inhibition"
COc1ccc(Br)cc1CN1CCC(N2CCCC2)CC1,"inconclusive [inhibitor, single point]",–
COC(=O)c1ccccc1NC(=O)c1cc2sccc2n1C,inactive,–
COc1ccc(CN(C(=O)CSc2nnc(-c3ccc(OC)c(OC)c3)o2)c2ccc(F)cc2)cc1,active: 23.1 µM,–
COc1ccc(NC(=O)CNc2cccc(S(=O)(=O)N3CCCCCC3)c2)c([N+](=O)[O-])c1,"inconclusive [inhibitor, partial curve]",–
CCOc1cc(CN2CCc3c([nH]c4ccccc34)C2)ccc1OC,"inconclusive [inhibitor, single point]",–
C=CCn1c(CNC(=O)c2cccs2)nnc1SCc1ccc(Cl)cc1Cl,"inconclusive [inhibitor, single point]",–
COc1ccc(-c2c3c(=O)n(C)c(=O)n(C)c3c3n2-c2ccccc2NC3c2ccco2)cc1 (stereo not given),"inconclusive [inhibitor, single point]",–
COC(=O)c1ccc2nc(-c3ccco3)c(Cc3cccc(Cl)c3)n2c1,active: 16.4 µM,–
CCOc1ccc(CCNC(=O)Cn2nc(CC)n3c(cc4ccccc43)c2=O)cc1,"inconclusive [inhibitor, single point]",–
CCCCCC(=O)NC(Nc1ccc(S(N)(=O)=O)cc1)C(Cl)(Cl)Cl (stereo not given),"inconclusive [inhibitor, single point]",–
CCc1ccccc1NC(=O)c1cnc(N2CCCCC2)c2ccccc12,"inconclusive [inhibitor, single point]",–
Cc1cc(=O)n(CC(=O)N2CCN(c3ccccc3F)CC2)c2c1c(C)nn2C,active: 8.2 µM,–
Cc1cccc2c1NC(=O)C2(c1ccc(O)cc1)c1ccc(O)cc1,inactive,–
COc1cc(C(=O)NCC(c2cccs2)S(=O)(=O)c2cccs2)cc(OC)c1OC (stereo not given),"inconclusive [inhibitor, single point]",–
COc1cccc(Nc2nc(-c3sc(N)nc3C)cs2)c1,"inconclusive [inhibitor, single point]",–
CC(=O)N1N=C(c2ccc(C)cc2)OC1c1ccc(C(C)C)cc1 (stereo not given),inactive,–
CC(C)n1nnnc1SCC(=O)Nc1cccc(F)c1,inactive,–
CCNC(=S)NNC(=O)CCn1c2ccccc2c2ccccc21,"inconclusive [inhibitor, single point]",–
COc1c(C)cc(C(O)c2ncc(-c3ccccc3F)[nH]2)cc1C (stereo not given),"inconclusive [inhibitor, partial curve]",–
CCOC(=O)c1[nH]c(C)c(CCC(=O)Nc2cc(C)ccc2OC)c1C,"inconclusive [inhibitor, single point]",–
COCCn1c(-c2cccs2)nc2nc3ccccc3nc21,"inconclusive [inhibitor, single point]",–
CCOc1ccc(CCNC(=O)C2=C(C)C(=O)OC23CCCCC3)cc1,inactive,–
CC(C)(C)[C@H](N)C(=O)N[C@H]1CCC2C3CC=C4C[C@@H](O)CC[C@]4(C)C3CC[C@@]21C (stereo not given in full),active: 3.66 µM,–
COC(=O)[C@]12CCCCC=C1N(Cc1ccccc1)C(=O)[C@H](CC(=O)NCC1CCCCC1)C2,"inconclusive [inhibitor, single point]",–

SMILES,Potency,"activity change, negative = growth inhibition"
COc1cc(/C=N/NC(=O)c2c(-c3c(Cl)cccc3Cl)noc2C)ccc1OCC(N)=O,inactive,–
O=C(O)c1ccc(N2CCCCS2(=O)=O)cc1,inactive,–
CC(=O)Nc1cccc(-c2csc(C(O)c3ccc(F)c(F)c3)n2)c1 (stereo not given),"inconclusive [inhibitor, single point]",–
O=C(c1cccnc1)N1CCN(c2ccc3ccccc3n2)CC1,"inconclusive [inhibitor, partial curve, poor fit]",–
CCN1C(=O)c2ccccc2S(=O)c2ccc(C(=O)N3CCN(c4cc(Cl)ccc4C)CC3)cc21 (stereo not given),active: 23.1 µM,–
COC(=O)[C@]12CCCCC=C1N(Cc1ccc(Cl)cc1Cl)C(=O)[C@H](CC(=O)NCCc1ccccc1OC)C2,"inconclusive [inhibitor, single point]",–
CCCc1ccc(-c2cc(C(=O)N/N=C/c3ccc([N+](=O)[O-])o3)c3ccccc3n2)cc1,active: 8.2 µM,–
Cc1ccccc1CN1CCC(CNC(=O)c2c(C)oc3ncnc(N4CCCCC4)c23)CC1,"inconclusive [inhibitor, single point]",–
CCOC(=O)c1c(N)sc(C(O)(C(F)(F)F)C(F)(F)F)c1-c1ccc(Cl)cc1,"inconclusive [inhibitor, single point]",–
C[C@H](NC(N)=O)C(=O)Nc1ccc2c(c1)OCO2,inactive,–
CN(Cc1ccccc1)C(=O)c1ccc2c(c1)N(Cc1ccccc1Cl)C(=O)c1ccccc1S2,"inconclusive [inhibitor, single point]",–
COc1ccc(-c2nc3ccccc3n2OC(C)C(=O)O)cc1 (stereo not given),inactive,–
O=C(CCn1c(=O)c2cccn2c2cccnc21)NCc1ccc(F)cc1,inactive,–
Cc1cc(O)c(-c2ccno2)cc1Cl,"inconclusive [inhibitor, partial curve]",–
COc1ccc(S(=O)(=O)N2CCC(C(=O)N[C@H](C(=O)NCc3ccccc3)C(C)C)CC2)cc1,"inconclusive [inhibitor, single point]",–
Fc1ccc(-c2noc3ncnc(NCc4ccc(Cl)cc4)c23)cc1,"inconclusive [inhibitor, single point]",–
CC(C)(C)C(=O)OC/C(N)=N/OC(=O)c1ccc(Cl)c(Cl)c1,"inconclusive [inhibitor, partial curve]",–
COC(=O)c1c(NC(=O)CSc2ncnc3[nH]ncc23)sc2c1CCC2,"inconclusive [inhibitor, single point]",–
CN(C)S(=O)(=O)c1cccc(-c2nn(-c3ccccc3)cc2/C=C(/C#N)C(=O)NCc2ccco2)c1,"inconclusive [inhibitor, partial curve, poor fit]",–
O=C(CSc1nccc(=O)[nH]1)NC1CCCCCC1,inactive,–
CCN(C(=O)COC(=O)/C=C/c1c(C)nn(-c2ccccc2)c1C)c1c(N)n(Cc2ccccc2)c(=O)[nH]c1=O,inactive,–
Cc1ccc(NC(=O)c2ccc(OC(F)F)cc2)cc1S(=O)(=O)N(C)C,"inconclusive [inhibitor, single point]",–

# Source: PubChem BioAssay AID686978 (National Center for Advancing Translational Sciences (NCATS), 2013)
